{"source": "paper PMC4336329", "about": "(PLoS ONE, 2015)", "note": "Among all 310,000 compounds or so, about 2,200 (0.71%) showed an effect of 50% or more. The effect is printed as a negative number. The list shows a part of the results.", "data": [{"target": "human ether-à-go-go-related gene (hERG) potassium channel (human, UniProt Q12809)", "sequence (Q12809 whole entry, looked up)": "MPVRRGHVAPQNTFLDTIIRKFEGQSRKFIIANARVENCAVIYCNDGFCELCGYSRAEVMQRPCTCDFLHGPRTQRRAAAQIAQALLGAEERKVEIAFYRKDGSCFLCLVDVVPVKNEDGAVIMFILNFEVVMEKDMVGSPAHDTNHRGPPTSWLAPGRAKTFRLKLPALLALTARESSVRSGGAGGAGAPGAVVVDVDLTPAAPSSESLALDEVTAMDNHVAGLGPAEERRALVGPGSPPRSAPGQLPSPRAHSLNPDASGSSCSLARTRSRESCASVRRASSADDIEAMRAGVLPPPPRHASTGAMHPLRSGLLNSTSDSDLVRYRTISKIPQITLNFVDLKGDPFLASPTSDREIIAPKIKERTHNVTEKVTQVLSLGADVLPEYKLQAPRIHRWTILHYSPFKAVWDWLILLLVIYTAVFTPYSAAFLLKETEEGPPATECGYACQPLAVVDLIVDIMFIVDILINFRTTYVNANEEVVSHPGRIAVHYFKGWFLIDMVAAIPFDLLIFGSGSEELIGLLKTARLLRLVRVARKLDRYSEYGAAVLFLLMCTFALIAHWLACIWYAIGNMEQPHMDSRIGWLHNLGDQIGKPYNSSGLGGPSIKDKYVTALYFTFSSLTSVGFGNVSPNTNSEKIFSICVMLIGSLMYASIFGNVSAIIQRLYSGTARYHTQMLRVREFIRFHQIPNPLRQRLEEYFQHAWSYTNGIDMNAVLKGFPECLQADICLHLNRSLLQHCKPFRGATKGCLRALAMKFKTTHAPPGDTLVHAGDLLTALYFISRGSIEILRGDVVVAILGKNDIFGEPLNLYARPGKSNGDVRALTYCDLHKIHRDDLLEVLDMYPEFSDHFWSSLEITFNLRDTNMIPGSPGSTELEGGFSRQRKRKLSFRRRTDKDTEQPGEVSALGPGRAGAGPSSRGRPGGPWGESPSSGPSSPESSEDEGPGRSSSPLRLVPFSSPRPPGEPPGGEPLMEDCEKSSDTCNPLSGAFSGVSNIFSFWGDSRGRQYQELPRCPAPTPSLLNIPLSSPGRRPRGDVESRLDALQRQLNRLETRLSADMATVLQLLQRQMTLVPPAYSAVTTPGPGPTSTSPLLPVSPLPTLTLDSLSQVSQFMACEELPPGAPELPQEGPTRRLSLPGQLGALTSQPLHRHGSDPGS", "test": "primary screen, population patch clamp on CHO cells stably expressing hERG", "units": {"hERG current change (%, negative = inhibition) at 1uM": "%"}, "values": [{"smiles": "CC1(C)C(c2cccs2)=NC(c2ccccc2)N1O", "note": "(stereo not drawn)", "hERG current change (%, negative = inhibition) at 1uM": 7.94}, {"smiles": "O=C(NCc1cccnc1)c1ccc(-c2ccc(Cl)cc2)o1", "hERG current change (%, negative = inhibition) at 1uM": -2.78}, {"smiles": "S=C(Nc1ccc2nsnc2c1)N1CCCCCC1", "hERG current change (%, negative = inhibition) at 1uM": 10.6}, {"smiles": "CCOc1ccc(-c2nnc3ccc(SC(C)C)nn23)cc1", "hERG current change (%, negative = inhibition) at 1uM": 3.92}, {"smiles": "O=C(CCC1CCCN(C2C3CC4CC(C3)CC2C4)C1)NCc1ccc(F)c(F)c1", "note": "(stereo not drawn)", "hERG current change (%, negative = inhibition) at 1uM": -7.87}, {"smiles": "CC(C)c1ccccc1OCC(O)CN(CC(O)COc1cccc2ccccc12)C(C)C", "note": "(stereo not drawn)", "hERG current change (%, negative = inhibition) at 1uM": 8.32}, {"smiles": "NC(=O)CN1C2CCC1CC(NC(=O)C1CC1)C2", "note": "(stereo not drawn)", "hERG current change (%, negative = inhibition) at 1uM": 18.3}, {"smiles": "O=S(=O)(NCCS(=O)(=O)N1CCN(c2ccccc2)CC1)c1ccccc1", "hERG current change (%, negative = inhibition) at 1uM": 21.7}, {"smiles": "CCOC(=O)Cn1cnc2c(sc3nc(C)cc(C)c32)c1=O", "hERG current change (%, negative = inhibition) at 1uM": -3.76}, {"smiles": "NCCCC[C@H]1CN=C(N)N1CC1CCCCC1", "hERG current change (%, negative = inhibition) at 1uM": 19.7}, {"smiles": "CC1CCCC(NC(=O)CCC(=O)NCc2ccccc2)C1C", "note": "(stereo not drawn)", "hERG current change (%, negative = inhibition) at 1uM": 14.5}, {"smiles": "COc1cccc(-n2cnnn2)c1", "hERG current change (%, negative = inhibition) at 1uM": 5.38}, {"smiles": "C[C@H](NC(=O)c1[nH]cnc1C(=O)Nc1ccc(Cl)cc1)C(=O)OC(C)(C)C", "hERG current change (%, negative = inhibition) at 1uM": 21.6}, {"smiles": "CC(C)(C)c1ccc(C(=O)N2CCN(CCNC(=O)C(=O)NCc3ccccc3)CC2)cc1", "hERG current change (%, negative = inhibition) at 1uM": -8.22}, {"smiles": "NC(=O)c1cc([N+](=O)[O-])ccc1NCc1ccccn1", "hERG current change (%, negative = inhibition) at 1uM": -13.7}, {"smiles": "Cc1cccc(CSC(Nc2ccc(F)cc2)=C(C#N)C#N)c1", "hERG current change (%, negative = inhibition) at 1uM": 6.21}, {"smiles": "Cc1ccc(C(=O)N2CCN(c3ncccn3)CC2)cc1NC1=NC2CS(=O)(=O)CC2S1", "note": "(stereo not drawn)", "hERG current change (%, negative = inhibition) at 1uM": 12.3}, {"smiles": "Cc1cc(SCC(=O)NC(=O)NCc2ccco2)nc2ccccc12", "hERG current change (%, negative = inhibition) at 1uM": 4.79}, {"smiles": "CC(C)CN(C(=O)COc1cccc(-n2cnnn2)c1)C1CCS(=O)(=O)C1", "note": "(stereo not drawn)", "hERG current change (%, negative = inhibition) at 1uM": -12.2}, {"smiles": "COc1cccc(C(=O)Nc2ccccc2N2CCOCC2)c1", "hERG current change (%, negative = inhibition) at 1uM": 0.987}, {"smiles": "CC(=O)Nc1ccc(NC(=O)CN(c2cccc(C)c2)S(C)(=O)=O)cc1", "hERG current change (%, negative = inhibition) at 1uM": -1.49}, {"smiles": "CCN1C(=O)C(CC(=O)NCCc2ccccc2)N(NC(=O)c2cccnc2)C1=S", "note": "(stereo not drawn)", "hERG current change (%, negative = inhibition) at 1uM": -13}, {"smiles": "CC(C)(C)c1ccc(C(=O)NNc2cc(N3CCCCC3)nc(N3CCCCC3)n2)cc1", "hERG current change (%, negative = inhibition) at 1uM": 19.2}, {"smiles": "Cc1ccc(C)c(NC(=O)c2cc3ccccc3o2)c1", "hERG current change (%, negative = inhibition) at 1uM": 5.49}, {"smiles": "CC(C)(C)NCC(O)COc1cccc2c1C[C@H](O)[C@H](O)C2", "note": "(stereo partly drawn)", "hERG current change (%, negative = inhibition) at 1uM": 19.2}, {"smiles": "O=C(NC(=S)Nc1cccc2cc(O)ccc12)c1ccccc1Br", "hERG current change (%, negative = inhibition) at 1uM": 15}, {"smiles": "O=C1CS(=O)(=O)c2ccccc2N1", "hERG current change (%, negative = inhibition) at 1uM": 16.2}, {"smiles": "CS(=O)(=O)c1ccc(-c2nnc(NC(=O)c3ccc(S(=O)(=O)N4CCCC4)cc3)o2)cc1", "hERG current change (%, negative = inhibition) at 1uM": -2.12}, {"smiles": "COc1ccccc1-c1cnnc(N/N=C/c2ccc(-c3cccc(Br)c3)o2)n1", "hERG current change (%, negative = inhibition) at 1uM": 13.5}, {"smiles": "CCOC(=O)c1sc(NC(=O)CSc2nncn2C)nc1C", "hERG current change (%, negative = inhibition) at 1uM": 10.1}, {"smiles": "CCn1nc(C)cc1C(=O)Sc1cccc(Cl)c1", "hERG current change (%, negative = inhibition) at 1uM": 10.9}, {"smiles": "Cc1cc(C)cc(NC(=O)NCc2nnc(SCc3ccccc3)n2C)c1", "hERG current change (%, negative = inhibition) at 1uM": 8.14}, {"smiles": "COc1ccc(/C=C/c2cccc[n+]2C)c(O)c1.[I-]", "hERG current change (%, negative = inhibition) at 1uM": 22.9}, {"smiles": "Cc1ccc(-c2nn(-c3ccccc3)cc2C=O)o1", "hERG current change (%, negative = inhibition) at 1uM": 8.95}, {"smiles": "Cc1n[nH]c(C)c1S(=O)(=O)N(CC(=O)NC1CCCC1)c1ccc(C(C)C)cc1", "hERG current change (%, negative = inhibition) at 1uM": 16.3}, {"smiles": "COc1ccc(/C=C2/C(=O)N(c3cccc(F)c3)N=C2C)c(OC)c1", "hERG current change (%, negative = inhibition) at 1uM": 19.3}, {"smiles": "CSCCC(NC(=O)c1ccccc1)C(=O)NC1CCCC1", "note": "(stereo not drawn)", "hERG current change (%, negative = inhibition) at 1uM": 4.81}, {"smiles": "COc1ccc(N2C(=O)CCC(C(=O)NCCCN3CCC(C)CC3)C2c2ccc(OC)c(OC)c2)cc1", "note": "(stereo not drawn)", "hERG current change (%, negative = inhibition) at 1uM": 11.7}, {"smiles": "CCOC(=O)C1(CC2CCCCO2)CCN(Cc2cc(F)ccc2-n2cccn2)CC1", "note": "(stereo not drawn)", "hERG current change (%, negative = inhibition) at 1uM": -14.9}, {"smiles": "O=C(c1cc(=O)[nH]c2ccccc12)N1CCN(c2ccc([N+](=O)[O-])cc2)CC1", "hERG current change (%, negative = inhibition) at 1uM": -11.8}, {"smiles": "CCN(CC)c1ccc(CNC(=O)C/C(C)=N/NC(=O)COc2ccc(C)cc2Br)cc1", "hERG current change (%, negative = inhibition) at 1uM": 5.4}, {"smiles": "COc1cc(C(=O)NCC(c2ccco2)N2CCCC2)ccc1OCc1c(C)noc1C", "note": "(stereo not drawn)", "hERG current change (%, negative = inhibition) at 1uM": -8.45}, {"smiles": "COC(=O)/C(=C1/Oc2cc(C)oc(=O)c2S1)C(F)(F)F", "hERG current change (%, negative = inhibition) at 1uM": 13.6}, {"smiles": "Cc1ccc(CN(C(=O)c2ccc(Cl)c([N+](=O)[O-])c2)C2CCS(=O)(=O)C2)o1", "note": "(stereo not drawn)", "hERG current change (%, negative = inhibition) at 1uM": 26.3}, {"smiles": "Cc1cc(C(=O)Nn2c(C)nc3ccccc3c2=O)ccc1[N+](=O)[O-]", "hERG current change (%, negative = inhibition) at 1uM": 10.7}, {"smiles": "CC(C)N(c1ccccc1)c1ccc(NC(=O)CCl)cc1", "hERG current change (%, negative = inhibition) at 1uM": 3.04}, {"smiles": "COc1cccc(CN2CCN(CCCc3ccccc3)C(CCO)C2)c1OC", "note": "(stereo not drawn)", "hERG current change (%, negative = inhibition) at 1uM": -6.77}, {"smiles": "CSc1ccc(CN2CCCCCC2)cc1", "hERG current change (%, negative = inhibition) at 1uM": 6.53}, {"smiles": "CN(C)c1ccc(NC(=O)CC(NCc2ccccn2)C(=O)O)cc1", "note": "(stereo not drawn)", "hERG current change (%, negative = inhibition) at 1uM": 2.64}, {"smiles": "CNC(=S)Nc1cccc(C(C)=O)c1", "hERG current change (%, negative = inhibition) at 1uM": 13.9}, {"smiles": "COc1ccc(-c2csc(NC(=O)c3ccccc3OC)c2C(=O)O)cc1OC", "hERG current change (%, negative = inhibition) at 1uM": 19.5}, {"smiles": "Cc1cc(C(=O)COC(=O)c2ccc3c(c2)NC(=O)CS3)c(C)n1CCc1ccc(Cl)cc1", "hERG current change (%, negative = inhibition) at 1uM": 16.3}, {"smiles": "CCOC(=O)c1c(S(=O)(=O)NCC(=O)Nc2ccc(OC)cc2)c(C)n(C)c1C", "hERG current change (%, negative = inhibition) at 1uM": 18.9}, {"smiles": "CC(C)(C)Cc1nnc(NC(=O)CN2C(=O)c3ccccc3C2=O)s1", "hERG current change (%, negative = inhibition) at 1uM": 11.5}, {"smiles": "Cc1sc2nc(CSc3ncn[nH]3)[nH]c(=O)c2c1C", "hERG current change (%, negative = inhibition) at 1uM": 2.82}, {"smiles": "CCOc1cccc(C(=O)Nc2cccc(-c3nnc(-c4ccccc4)o3)c2)c1", "hERG current change (%, negative = inhibition) at 1uM": -0.681}, {"smiles": "COc1ccc(OCC(=O)NC(=O)c2ccccc2OC)c([N+](=O)[O-])c1", "hERG current change (%, negative = inhibition) at 1uM": 5.26}]}]}
